# Measurements reported in PubChem BioAssay AID651820 (National Center for Advancing Translational Sciences (NCATS), 2012).
# The campaign covered roughly 340,000 compounds. About 12,000 (3.5%) were called active. This list was built around the results that the source calls inconclusive (neither active nor inactive); the mix of calls is not that of the screen. Calls come from the whole dose curve; as a rule, active = well fitted inhibition curve with a large enough effect; inconclusive = small, poorly fitted or top-dose-only effect, or another doubt; inactive = no such curve, though single readings can be large or run the other way. No potency is given beside an inconclusive call; the fits are too rough.
# Experiment: qHTS Assay for Inhibitors of Hepatitis C Virus (HCV)
# Details: Huh7.5.1 HCVcc-Cre (HCVcc is cell-culture hepatitis C virus) infection, luciferase reporter, 44 h; activity change, negative = inhibition: at 41.8 µM (top of the series) unless noted
# Method in brief: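 HCVcc-Cre virus at an moi near 0.5 was added right after compound to cells cultured 4 h from seeding (1,000 cells/well). Luciferase activity was determined 44 h later, 15 min after substrate addition at RT.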
# % is set by controls: 0 for no effect and ±100 for the full control effect; potency is the fitted concentration of half-maximal effect; tags give direction and shape of the fitted curve.
Structure (SMILES),Potency,"activity change, negative = inhibition"
CCOc1ccc(S(=O)(=O)NCCC(=O)N2CCC(Cc3ccccc3)CC2)cc1,"inconclusive [inhibitor, single point]",
CCOc1cc(NC(=S)NCc2ccco2)c(OCC)cc1NC(=O)c1ccco1,active: 2.82 µM,
COc1cc(CN2CCN(c3cccc(C)c3C)CC2)cc(Br)c1O,"inconclusive [inhibitor, single point]",
CCC(=O)Nc1cc(C(=O)OCC(=O)c2ccccc2)ccc1C,inactive,
Cc1ncc(CO)c(/C=N/NC(=O)c2ccccc2Br)c1O,"inconclusive [inhibitor, partial curve]",
CC(C)c1ccc(S(=O)(=O)N2CCC(C(=O)N3CCC3)CC2)cc1,"inconclusive [inhibitor, single point]",
CC1CC/C(=C\c2ccc3c(c2)OCO3)C(=O)/C1=C/c1ccc2c(c1)OCO2 (stereo not given),"inconclusive [inhibitor, single point]",
O=C(Nc1ccc(-c2cn3ccccc3n2)cc1)c1cccs1,"inconclusive [inhibitor, partial curve]",
CC1CCCC(NC(=O)c2ccc3c(c2)NC(=O)CS3)C1C (stereo not given),inactive,
CC(=O)c1cccc(NC(=O)C(C)OC(=O)c2cc(C)oc2C)c1 (stereo not given),"inconclusive [inhibitor, partial curve, poor fit]",
O=c1c2ccccc2nc(SCCN2CCOCC2)n1CCc1ccccc1,"inconclusive [inhibitor, single point]",
O=S(=O)(Nc1cccc(-n2cnnn2)c1)c1ccc(F)cc1,inactive,
CC(=O)c1cccc(NC(=O)C2CC(=O)N(c3cccc(C)c3C)C2)c1 (stereo not given),inactive,
Cc1c(NC(=O)C2CCCN2S(=O)(=O)c2cccc3nsnc23)cccc1C(=O)O (stereo not given),inactive,
COc1ccc(-c2cc(C(=O)N3CCCCCC3)c3cc(C)ccc3n2)cc1,"inconclusive [inhibitor, single point]",
C=CCOc1ccc(CN(C)c2ccc(S(=O)(=O)N3CCN(C)CC3)cc2[N+](=O)[O-])cc1,"inconclusive [inhibitor, partial curve]",
O=C(CS(=O)CC(=O)N(c1cccc(F)c1)C(C(=O)NC1CCCCC1)c1ccco1)Nc1ccc(F)cc1 (stereo not given),"inconclusive [inhibitor, single point]",
Cc1ccc(S(=O)(=O)N2CCOCC2)cc1NC(=O)COc1ccccc1Cc1ccccc1,active: 12.6 µM,
CCOC(=O)[C@H]1[C@H]2COc3ccc(OC)cc3[C@@H]2N2C(=O)CN(Cc3ccc(F)cc3)C(=O)[C@@]12C,"inconclusive [inhibitor, single point]",
Brc1ccc2oc3c(N4CCOCC4)ncnc3c2c1,"inconclusive [inhibitor, single point]",
CCc1cccc(CC)c1NC(=O)c1cc(CN2C(=O)c3ccccc3C2=O)ccc1OC,"inconclusive [inhibitor, single point]",
Cc1cc(C)nc(-n2nc(C)cc2NC(=O)c2cccc(S(=O)(=O)N3CCOCC3)c2)n1,"inconclusive [inhibitor, single point]",
COC(=O)CSc1nc(NCC(C)C)nc(N2CCOCC2)n1,"inconclusive [inhibitor, full curve]",
CCOC(=O)c1c(NC(=O)c2cccs2)sc(C(=O)N2CCOCC2)c1C,inactive,

Structure (SMILES),Potency,"activity change, negative = inhibition"
CC(C)CC1c2[nH]c3ccccc3c2CCN1CCCn1cccn1 (stereo not given),inactive,
Cc1ccc(S(=O)(=O)N2CCOCC2)cc1C(=O)OCC(=O)Nc1ccc2[nH]c(=O)[nH]c2c1,inactive,
O=C(C[n+]1cccc(CNC(=O)c2ccc(OC(F)F)cc2)c1)Nc1ccc(SC(F)F)cc1,"inconclusive [inhibitor, single point]",
Cc1nn(CC(=O)NCCCN2CCOCC2)c(C)c1[N+](=O)[O-],inactive,
Cc1cc(C(=O)Nc2ccc3ccccc3c2)oc1C,active: 11.2 µM,
O=C(Nc1ccc([N+](=O)[O-])cc1)c1ccc(Cn2cc([N+](=O)[O-])cn2)cc1,"inconclusive [inhibitor, single point]",
Cc1cccnc1NCc1ccc(O)c2ncccc12,active: 10 µM,
CCOc1ccc(Br)cc1S(=O)(=O)Nc1cccc(S(=O)(=O)N(C)C)c1,inactive,
Cc1ccc2[nH]c3c(=O)n(CC(=O)Nc4ccccc4N4CCN(C)CC4)ncc3c2c1,"inconclusive [inhibitor, single point]",
O=C(N/N=C/c1c[nH]c2ccccc12)C1CC1c1ccccc1 (stereo not given),"inconclusive [inhibitor, partial curve]",
Brc1ccc2ncnc(NCc3ccco3)c2c1,active: 25.1 µM,
CC(C)C(=O)Nc1cc(S(=O)(=O)Nc2ccc(Cl)cc2)ccc1Cl,"inconclusive [inhibitor, single point]",
NNC(=O)[C@H](Cc1ccccc1)NC(=O)Nc1ccc2c(c1)OCCO2,inactive,
O=C(N/N=C/c1ccc([N+](=O)[O-])s1)c1cccnc1,active: 14.1 µM,
CN(CC(=O)NCCc1ccccc1)S(=O)(=O)c1ccc(Br)cc1,inactive,
COC(=O)C1=C(C)OC(N)=C(C#N)C12C(=O)Nc1ccccc12 (stereo not given),inactive,
CCCCNC(=S)N(C)/N=C/c1ccc(OCC(=O)Nc2c(C)cc(C)cc2C)c(OC)c1,"inconclusive [inhibitor, full curve]",
CC(=O)c1cccc(-n2nnnc2SCC(=O)Nc2cccc(NC(=O)c3ccco3)c2)c1,"inconclusive [inhibitor, full curve]",
COc1ccc(-c2noc(COc3ccc4c(c3)OCO4)n2)cc1OC,"inconclusive [inhibitor, full curve, poor fit]",
COc1ccc(NC(=O)c2ccc(-c3ccccc3)cc2)cc1NS(=O)(=O)c1ccc(F)cc1,active: 3.98 µM,
Cc1ccc(CNC(=O)Cn2ccc3cc(S(=O)(=O)N4CCCCCC4)ccc32)cc1,"inconclusive [inhibitor, partial curve]",
CCCCN(C)C(=O)Cn1ncc2c3ccccc3n(CCC)c2c1=O,"inconclusive [inhibitor, single point]",
CCOC(=O)c1c(NC(=O)Nc2cccc(Cl)c2)sc(C)c1C,"inconclusive [inhibitor, partial curve]",
CCOC(=O)c1c(C)nc2sc3c(=O)n(-c4ccc(C(C)=O)cc4)cnc3c2c1-c1ccc(Cl)cc1,inactive,

Structure (SMILES),Potency,"activity change, negative = inhibition"
CCN1CCCC1CNCc1ccccc1OCc1ccc(F)cc1 (stereo not given),"inconclusive [inhibitor, single point]",
O=C(CSc1nc2ccccc2c(=O)n1Cc1ccco1)c1ccccc1,"inconclusive [inhibitor, partial curve]",
COc1ccc2c(CC(=O)NC3CCCc4ccccc43)coc2c1 (stereo not given),"inconclusive [inhibitor, partial curve]",
COc1cccc(NC(=O)CN2C(=O)c3cccnc3Oc3ccc(Cl)cc32)c1,"inconclusive [inhibitor, partial curve]",
C/C(NC(=O)c1cccc(F)c1)=C1/C(=O)C[C@@H]2[C@H]1C2(C)C,"inconclusive [inhibitor, single point]",
Cc1noc(C)c1C(=O)N1CCCC(N2CCN(c3cccc(C(F)(F)F)c3)CC2)C1 (stereo not given),inactive,
C=CCn1nnnc1SCC(=O)Nc1cccc(C(F)(F)F)c1,inactive,
COC(=O)c1ccc2c(=O)[nH]c(CN3c4ccccc4CC3C)nc2c1 (stereo not given),"inconclusive [inhibitor, full curve, poor fit]",
COc1ccc(-c2nc3ccc(N4CCCC4)cc3c(=O)[nH]2)cc1OC,active: 10 µM,
COc1ccc(Br)cc1CN(C)C(C)C(=O)Nc1cccc(C(C)=O)c1 (stereo not given),"inconclusive [inhibitor, partial curve, poor fit]",
COC(CNC(=O)CCc1c(C)nc2c(c(C)nn2-c2ccc(C)cc2)c1C)OC,,inconclusive: -32.5% [inhibitor]
CC[C@@]12C(=O)N(c3cccc(Br)c3)C(=O)N1[C@H](c1ccc(F)cc1)[C@@H]1C(=O)N(C3CCCCC3)C(=O)[C@@H]12,inactive,
COc1ccc(-c2csc3ncnc(N4CCN(c5ccccc5O)CC4)c23)cc1,"inconclusive [inhibitor, single point]",
Cc1ccc(S(=O)(=O)N2CCN(C(=O)CC(C)n3nc(C)c(Cl)c3C)CC2)cc1C (stereo not given),inactive,
COc1cc(NC(=O)c2ccccc2)ccc1NC(=O)Cc1ccccc1,"inconclusive [inhibitor, full curve]",
COc1ccc(S(=O)(=O)N2CCN(c3ccccc3)CC2)cc1OC,,inconclusive: -69.6% [inhibitor]
CCCSc1nnc(N2C(=O)CC(c3ccsc3)C3=C2CCCC3=O)s1 (stereo not given),inactive,
O=C(N[C@H]1CCC(=O)N(CCSc2ccc(Br)cc2)CC1)OCc1ccccc1,"inconclusive [inhibitor, partial curve]",
O=C(O)C1CC=CCC1C(=O)NC1CCCCC1 (stereo not given),inactive,
CCOc1ccccc1-c1cc(-c2ccc(OC)cc2)nc2c1c(=O)n(C)c(=O)n2C,"inconclusive [inhibitor, single point]",
CCCn1c(/C=N/Nc2nc3ccccc3[nH]2)nc2ccccc21,"inconclusive [inhibitor, full curve]",
COC(=O)c1c(NC(=O)c2ccc(C)cc2)csc1C,"inconclusive [inhibitor, single point]",
